Assay results as given in the supplement of paper PMC10441789.
The other results are listed elsewhere or left out. Antibody binding of pooled human sera (four to six donors per pool; dilution not stated) to peptides of the Trypanosoma cruzi antigen TSSA on microarrays. Quantile-normalised fluorescence in arbitrary units, mean of duplicate arrays; higher = more binding. No active / inactive call. The uninfected pools are read here as the healthy donors of the same country. The strongest signals lie near the top of the scale (about 60,000).

Experiments:
Test in all cases: antibody binding signal (normalised fluorescence) (arbitrary fluorescence units); higher = stronger serum antibody binding to peptide
[1] = test system: pooled sera of chronic Chagas disease patients, Argentina
Method: (§1)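 Microarray of 15-residue peptides over residues 30-55 of Trypanosoma cruzi TSSAII, each with 1 to 10 substitutions at naturally variable positions, probed with one serum pool per country.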

[2] = test system: pooled sera of chronic Chagas disease patients, Bolivia
Method: as §1

[3] = test system: pooled sera of chronic Chagas disease patients, Brazil
Method: as §1

[4] = test system: pooled sera of chronic Chagas disease patients, Colombia
Method: as §1

[5] = test system: pooled sera of chronic Chagas disease patients, Mexico
Method: as §1

[6] = test system: pooled sera of chronic Chagas disease patients, USA
Method: as §1

[7] = test system: pooled sera of uninfected people, Argentina
Method: as §1

[8] = test system: pooled sera of uninfected people, Bolivia
Method: as §1

[9] = test system: pooled sera of uninfected people, Brazil
Method: as §1

[10] = test system: pooled sera of uninfected people, Colombia
Method: as §1

[11] = test system: pooled sera of uninfected people, Mexico
Method: as §1

[12] = test system: pooled sera of uninfected people, USA
Method: as §1

Sequence | antibody binding signal [1] | antibody binding signal [2] | antibody binding signal [3] | antibody binding signal [4] | antibody binding signal [5] | antibody binding signal [6] | antibody binding signal [7] | antibody binding signal [8] | antibody binding signal [9] | antibody binding signal [10] | antibody binding signal [11] | antibody binding signal [12]
SGTENKAATGGAPSQ | 38100 | 14600 | 19200 | 854 | 984 | 5850 | 519 | 400 | 235 | 198 | 201 | 118
DNKAATGETPSQSGA | 3080 | 4600 | 26200 | 85.2 | 127 | 11300 | 101 | 216 | 247 | 136 | 218 | 111
GKDKKPAAGGTPSQS | 217 | 225 | 180 | 1240 | 519 | 453 | 115 | 83.1 | 515 | 278 | 122 | 90.8
GTDNKTAAGGAPSPS | 384 | 289 | 19600 | 4800 | 909 | 525 | 341 | 654 | 1840 | 219 | 368 | 199
GTENKTAAGGAPSQP | 35100 | 1470 | 4900 | 4980 | 1840 | 1500 | 369 | 543 | 338 | 243 | 412 | 158
PPSGKEKKPAAGGTP | 1440 | 482 | 1570 | 2560 | 6250 | 2520 | 349 | 351 | 516 | 235 | 73.3 | 220
STPPSGKDKKTATGE | 23600 | 2250 | 3530 | 337 | 33800 | 1350 | 348 | 469 | 134 | 178 | 134 | 84.6
SGKDNKPAAGGTPSP | 643 | 339 | 4750 | 1750 | 973 | 1120 | 536 | 654 | 476 | 870 | 197 | 131
GTEKKAAAGEAPSQP | 5880 | 9940 | 39500 | 1080 | 1040 | 12500 | 102 | 1180 | 153 | 96.9 | 90.5 | 123
KAAAGETPSPPGASS | 320 | 295 | 3070 | 263 | 195 | 727 | 154 | 229 | 134 | 101 | 162 | 493
GKEKKAAAGEAPSPP | 4340 | 377 | 1570 | 5120 | 5630 | 9740 | 141 | 85.7 | 81.9 | 88.1 | 78.5 | 104
GKDNKAATGETPSPS | 7180 | 1640 | 14600 | 6530 | 5750 | 12700 | 236 | 371 | 118 | 242 | 242 | 2450
SGKDNKAAAGGAPSQ | 678 | 284 | 1120 | 3020 | 1300 | 1120 | 207 | 248 | 137 | 561 | 71 | 109
KENKPATGEAPSQPG | 49700 | 44800 | 53000 | 400 | 847 | 45800 | 1060 | 899 | 305 | 219 | 246 | 178
STPPSGTDNKPAAGE | 50400 | 45400 | 47000 | 7270 | 24300 | 43300 | 2230 | 654 | 295 | 350 | 639 | 349
KDKKTATGGTPSQSG | 310 | 240 | 247 | 615 | 188 | 1220 | 264 | 88.5 | 130 | 100 | 101 | 101
PSGTDNKAATGEAPS | 26800 | 35600 | 44500 | 323 | 408 | 27000 | 170 | 577 | 1220 | 224 | 154 | 146
GKENKAATGETPSQP | 16400 | 6060 | 41900 | 16900 | 17400 | 23800 | 525 | 250 | 205 | 194 | 240 | 228
TEKKTAAGETPSPSG | 576 | 247 | 315 | 495 | 470 | 3660 | 154 | 230 | 689 | 765 | 490 | 1960
GKENKPATGGAPSQP | 3670 | 1040 | 24800 | 3670 | 6100 | 10900 | 839 | 944 | 143 | 121 | 230 | 142
KDKKAATGGAPSPPG | 406 | 184 | 164 | 408 | 545 | 641 | 226 | 87.8 | 79.5 | 144 | 96.8 | 85.1
SGTDKKAAAGETPSP | 246 | 1110 | 3410 | 5690 | 594 | 2450 | 178 | 270 | 253 | 330 | 1140 | 632
GTDKKAAAGETPSPS | 252 | 381 | 757 | 1940 | 401 | 3120 | 174 | 329 | 171 | 177 | 534 | 2230
GTENKTAAGETPSPS | 28700 | 621 | 732 | 1360 | 1240 | 3100 | 186 | 384 | 158 | 247 | 412 | 1720
TPPSGKENKPAAGGT | 33000 | 5410 | 10600 | 1040 | 14700 | 14300 | 4800 | 2360 | 859 | 566 | 283 | 439

Sequence | antibody binding signal [1] | antibody binding signal [2] | antibody binding signal [3] | antibody binding signal [4] | antibody binding signal [5] | antibody binding signal [6] | antibody binding signal [7] | antibody binding signal [8] | antibody binding signal [9] | antibody binding signal [10] | antibody binding signal [11] | antibody binding signal [12]
STPPSGKDNKPAAGG | 20900 | 5170 | 27500 | 382 | 26200 | 16600 | 876 | 890 | 189 | 221 | 331 | 447
KDNKAATGEAPSPSG | 23500 | 28800 | 31100 | 176 | 231 | 23400 | 370 | 1010 | 195 | 182 | 90.6 | 156
GTDNKTATGETPSPS | 528 | 1210 | 31100 | 320 | 224 | 7630 | 147 | 543 | 1300 | 166 | 430 | 2470
DNKPAAGGAPSQSGA | 223 | 676 | 4120 | 1510 | 325 | 475 | 216 | 400 | 552 | 225 | 384 | 171
KDNKPATGEAPSQPG | 45100 | 44500 | 51700 | 330 | 201 | 40300 | 1260 | 737 | 383 | 221 | 318 | 138
TDKKPAAGETPSPSG | 377 | 195 | 4000 | 275 | 217 | 2530 | 100 | 316 | 173 | 166 | 224 | 1860
SSTPPSGKEKKAATG | 12300 | 188 | 233 | 317 | 22000 | 631 | 279 | 415 | 109 | 283 | 80.1 | 105
TEKKPATGETPSPSG | 35600 | 30900 | 27200 | 361 | 262 | 21600 | 159 | 417 | 371 | 204 | 1690 | 2350
NKPAAGGTPSQSGAS | 223 | 242 | 2360 | 1620 | 356 | 255 | 620 | 905 | 1470 | 480 | 792 | 1180
TENKPATGEAPSQSG | 46600 | 48500 | 51000 | 314 | 689 | 41400 | 1040 | 811 | 343 | 119 | 285 | 167
GTDKKTATGETPSQS | 666 | 712 | 2550 | 1160 | 355 | 7130 | 278 | 344 | 321 | 135 | 205 | 108
GKDKKTATGETPSPS | 810 | 220 | 493 | 1320 | 1300 | 5080 | 231 | 106 | 97.5 | 103 | 95.1 | 711
SGKEKKPAAGETPSP | 10100 | 1920 | 6600 | 4510 | 8760 | 6390 | 281 | 362 | 110 | 148 | 92.1 | 349
KEKKTAAGETPSQSG | 144 | 232 | 191 | 213 | 112 | 740 | 113 | 119 | 89.4 | 195 | 113 | 112
TDNKAATGEAPSQSG | 21900 | 35500 | 35000 | 232 | 207 | 26500 | 210 | 312 | 194 | 121 | 175 | 117
GKENKTAAGGTPSPP | 1140 | 973 | 2550 | 4600 | 2160 | 8460 | 354 | 86.3 | 289 | 151 | 413 | 141
TDKKPATGEAPSQSG | 43000 | 46800 | 45900 | 392 | 187 | 37900 | 828 | 660 | 207 | 277 | 292 | 143
GKENKAAAGGAPSPS | 1650 | 612 | 3180 | 6680 | 4930 | 8410 | 392 | 85 | 118 | 127 | 101 | 124
SGTDNKAAAGETPSP | 322 | 221 | 44100 | 484 | 208 | 1140 | 107 | 687 | 1150 | 128 | 255 | 679
STPPSGTDKKPAAGG | 50300 | 31000 | 48900 | 8060 | 56000 | 18900 | 1570 | 658 | 450 | 285 | 5620 | 993
GKEKKPAAGGAPSPS | 3690 | 185 | 235 | 2390 | 1180 | 1230 | 97.6 | 149 | 121 | 79.3 | 87.3 | 253
GTDKKPATGEAPSQS | 47700 | 44700 | 49900 | 6580 | 479 | 40700 | 945 | 685 | 316 | 271 | 697 | 167
TEKKTATGETPSQPG | 1520 | 2520 | 30300 | 486 | 412 | 8210 | 325 | 416 | 514 | 240 | 313 | 255
ISTPPSGTENKPATG | 52100 | 49900 | 54900 | 2210 | 7070 | 43100 | 9960 | 2240 | 845 | 1000 | 618 | 1150
KEKKTAAGGTPSQSG | 213 | 228 | 164 | 3170 | 186 | 1490 | 203 | 95.8 | 262 | 111 | 151 | 108
